Measured values as given in PubChem BioAssay AID256 (DTP/NCI, 2004).
Where “and” joins values, the source holds several entries; their conditions need not be identical. Identical values can stand only once. This continues a long series; more values of the same kind are listed elsewhere. Inconclusive results and toxic doses are left out.

System: CD2F1 mice, L1210 leukemia ip, survival T/C
Assay: NCI In Vivo Anticancer Drug Screen. Data for tumor model L1210 Leukemia (intraperitoneal) in CD2F1 (CDF1) mice
Details: higher = longer survival
Outline: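 Vehicle-treated tumor-bearing mice served as controls (C) for compound-treated mice (T). Reported figure is T divided by C.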

Nc1ncn(C2OC(CO)C(O)C2O)c(=O)n1 (stereo not given) was tested, and the T/C (endpoint: mean survival time, dose: 100.0 mg/kg/injection, schedule: Q01DX001 (ip), vehicle: saline) was 161 % of control and 169 % of control, the T/C (endpoint: median survival time, dose: 0.16 mg/kg/injection, schedule: Q01DX009 (ip), vehicle: saline) was 117 % of control and the T/C (endpoint: median survival time, dose: 0.31 mg/kg/injection, schedule: Q01DX009 (ip), vehicle: saline) was 123 % of control. The T/C (endpoint: median survival time, dose: 0.38 mg/kg/injection, schedule: Q01DX009 (ip), vehicle: saline) was 151 % of control, the T/C (endpoint: median survival time, dose: 0.5 mg/kg/injection, schedule: Q01DX009 (ip), vehicle: saline) was 156 % of control and the T/C (endpoint: median survival time, dose: 0.75 mg/kg/injection, schedule: Q01DX009 (ip), vehicle: saline) was 158 % of control and 175 % of control. The T/C (endpoint: median survival time, dose: 0.94 mg/kg/injection, schedule: Q04DX003 (ip), vehicle: saline) was 111 % of control, the T/C (endpoint: median survival time, dose: 1.0 mg/kg/injection, schedule: Q01DX009 (ip), vehicle: saline) was 168 % of control and 181 % of control and the T/C (endpoint: median survival time, dose: 1.0 mg/kg/injection, schedule: Q01DX009 (oral), vehicle: saline) was 100 % of control. The T/C (endpoint: median survival time, dose: 1.0 mg/kg/injection, schedule: Q04DX003 (ip), vehicle: saline) was 114 % of control, the T/C (endpoint: median survival time, dose: 1.25 mg/kg/injection, schedule: Q01DX009 (ip), vehicle: saline) was 162 % of control and the T/C (endpoint: median survival time, dose: 1.5 mg/kg/injection, schedule: Q01DX009 (ip), vehicle: clinical formulation) was 214 % of control. The T/C (endpoint: median survival time, dose: 1.5 mg/kg/injection, schedule: Q01DX009 (ip), vehicle: saline) was 192 % of control and 202 % of control and 212 % of control, the T/C (endpoint: median survival time, dose: 1.88 mg/kg/injection, schedule: Q04DX003 (ip), vehicle: saline) was 117 % of control and the T/C (endpoint: median survival time, dose: 2.0 mg/kg/injection, schedule: Q01DX005 (ip), vehicle: saline) was 195 % of control. For the same compound, the T/C (endpoint: median survival time, dose: 2.0 mg/kg/injection, schedule: Q01DX009 (ip), vehicle: saline) was 207 % of control and 244 % of control, the T/C (endpoint: median survival time, dose: 2.0 mg/kg/injection, schedule: Q04DX003 (ip), vehicle: saline) was 118 % of control and the T/C (endpoint: median survival time, dose: 2.5 mg/kg/injection, schedule: Q01DX009 (ip), vehicle: saline) was 262 % of control. The T/C (endpoint: median survival time, dose: 3.0 mg/kg/injection, schedule: Q01DX009 (ip), vehicle: clinical formulation) was 111 % of control, the T/C (endpoint: median survival time, dose: 3.0 mg/kg/injection, schedule: Q01DX009 (ip), vehicle: saline) was 118 % of control and 239 % of control and 291 % of control and the T/C (endpoint: median survival time, dose: 4.0 mg/kg/injection, schedule: Q01DX005 (ip), vehicle: saline) was 269 % of control. For the same compound, the T/C (endpoint: median survival time, dose: 4.0 mg/kg/injection, schedule: Q01DX009 (ip), vehicle: saline) was 280 % of control and 310 % of control, the T/C (endpoint: median survival time, dose: 4.6 mg/kg/injection, schedule: Q03HX024 (ip), vehicle: DMSO) was 731 % of control and the T/C (endpoint: median survival time, dose: 5.0 mg/kg/injection, schedule: Q01DX009 (ip), vehicle: saline) was 212 % of control. For the same compound, the T/C (endpoint: median survival time, dose: 5.18 mg/kg/injection, schedule: Q04DX002 (ip), vehicle: saline) was 164 % of control, the T/C (endpoint: median survival time, dose: 6.0 mg/kg/injection, schedule: Q01DX009 (ip), vehicle: saline) was 258 % of control and the T/C (endpoint: median survival time, dose: 6.0 mg/kg/injection, schedule: Q03HX024 (ip), vehicle: saline) was 696 % of control. For the same compound, the T/C (endpoint: median survival time, dose: 7.5 mg/kg/injection, schedule: Q04DX003 (ip), vehicle: saline) was 158 % of control, the T/C (endpoint: median survival time, dose: 8.0 mg/kg/injection, schedule: Q01DX005 (ip), vehicle: saline) was 294 % of control and the T/C (endpoint: median survival time, dose: 8.0 mg/kg/injection, schedule: Q01DX009 (ip), vehicle: saline) was 120 % of control. The T/C (endpoint: median survival time, dose: 8.0 mg/kg/injection, schedule: Q01DX009 (oral), vehicle: saline) was 156 % of control, the T/C (endpoint: median survival time, dose: 8.0 mg/kg/injection, schedule: Q04DX003 (ip), vehicle: saline) was 179 % of control and the T/C (endpoint: median survival time, dose: 8.64 mg/kg/injection, schedule: Q04DX002 (ip), vehicle: saline) was 185 % of control. For the same compound, the T/C (endpoint: median survival time, dose: 9.0 mg/kg/injection, schedule: Q03HX024 (ip), vehicle: saline) was 695 % of control, the T/C (endpoint: median survival time, dose: 9.3 mg/kg/injection, schedule: Q03HX024 (ip), vehicle: DMSO) was 731 % of control and the T/C (endpoint: median survival time, dose: 10.0 mg/kg/injection, schedule: Q01DX009 (ip), vehicle: saline) was 107 % of control. For the same compound, the T/C (endpoint: median survival time, dose: 13.0 mg/kg/injection, schedule: Q03HX024 (ip), vehicle: saline) was 695 % of control, the T/C (endpoint: median survival time, dose: 14.4 mg/kg/injection, schedule: Q04DX002 (ip), vehicle: saline) was 211 % of control and the T/C (endpoint: median survival time, dose: 15.0 mg/kg/injection, schedule: Q04DX003 (ip), vehicle: saline) was 198 % of control. The T/C (endpoint: median survival time, dose: 16.0 mg/kg/injection, schedule: Q01DX005 (ip), vehicle: saline) was 98 % of control and 107 % of control, the T/C (endpoint: median survival time, dose: 16.0 mg/kg/injection, schedule: Q01DX009 (ip), vehicle: saline) was 95 % of control and the T/C (endpoint: median survival time, dose: 16.0 mg/kg/injection, schedule: Q01DX009 (oral), vehicle: saline) was 210 % of control. The T/C (endpoint: median survival time, dose: 16.0 mg/kg/injection, schedule: Q04DX003 (ip), vehicle: saline) was 215 % of control, the T/C (endpoint: median survival time, dose: 18.7 mg/kg/injection, schedule: Q03HX024 (ip), vehicle: DMSO) was 731 % of control and the T/C (endpoint: median survival time, dose: 20.0 mg/kg/injection, schedule: Q03HX024 (ip), vehicle: saline) was 696 % of control. The T/C (endpoint: median survival time, dose: 24.0 mg/kg/injection, schedule: Q04DX002 (ip), vehicle: saline) was 215 % of control, the T/C (endpoint: median survival time, dose: 30.0 mg/kg/injection, schedule: Q03HX024 (ip), vehicle: saline) was 695 % of control and the T/C (endpoint: median survival time, dose: 30.0 mg/kg/injection, schedule: Q04DX003 (ip), vehicle: saline) was 172 % of control. For the same compound, the T/C (endpoint: median survival time, dose: 32.0 mg/kg/injection, schedule: Q01DX009 (oral), vehicle: saline) was 106 % of control, the T/C (endpoint: median survival time, dose: 40.0 mg/kg/injection, schedule: Q04DX002 (ip), vehicle: saline) was 122 % of control and the T/C (endpoint: median survival time, dose: 75.0 mg/kg/injection, schedule: Q03HX024 (ip), vehicle: DMSO) was 108 % of control. The T/C (endpoint: median survival time, dose: 150.0 mg/kg/injection, schedule: Q01DX009 (ip), vehicle: saline) was 510 % of control, the T/C (endpoint: median survival time, dose: 150.0 mg/kg/injection, schedule: Q03HX024 (ip), vehicle: DMSO) was 93 % of control and the T/C (endpoint: median survival time, dose: 720.0 mg/kg/injection, schedule: Q01DX005 (ip), vehicle: DMSO) was 107 % of control. The T/C (endpoint: median survival time, dose: 800.0 mg/kg/injection, schedule: Q01DX009 (oral), vehicle: DMSO) was 101 % of control.
